Laboratory results taken from PubChem BioAssay AID651820 (National Center for Advancing Translational Sciences (NCATS), 2012).
Where “and” joins values, the source holds several entries; their conditions need not be identical. Equal values may be shown once. About 12,000 (3.5%) of roughly 340,000 compounds were called active. The shares of active, inactive and inconclusive entries below differ from those in the screen. Calls follow the shape of the dose curve; as a rule, active = well fitted inhibition curve with a large enough effect; inconclusive = small, poorly fitted or top-dose-only effect, or another doubt; inactive = no such curve, though single readings can be large or run the other way. Potencies beside an inconclusive call are fits to weak or partial responses and may not hold up.

Experiment: qHTS Assay for Inhibitors of Hepatitis C Virus (HCV)
Conditions: Huh7.5.1 HCVcc-Cre (HCVcc is cell-culture hepatitis C virus) infection, luciferase reporter, 44 h; series mostly up to 41.8 µM
In short: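 HCVcc-Cre virus at an moi near 0.5 was added right after compound to cells cultured 4 h from seeding (1,000 cells/well). Luciferase activity was determined 44 h later, 15 min after substrate addition at RT.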
Potency is read from the fitted curve at half-maximal effect; tags tell the direction and shape of the fitted curve.

SMILES | Potency
O=C(c1ccc(Cl)cc1)C(CN1CCCC1)c1ccccc1 (stereo not given) | inconclusive: 11.2 µM [inhibitor, partial curve]
COc1ccccc1NS(=O)(=O)c1cccc(C(=O)N2CCN(C/C=C/c3ccccc3)CC2)c1 | inconclusive: 12.6 µM [inhibitor, partial curve, poor fit]
COCCN(CC(=O)Nc1cccc(S(=O)(=O)N2CCCC2)c1)Cc1nc2ccccc2c(=O)[nH]1 | inconclusive: 1.41 µM [inhibitor, partial curve]
C#C[C@]1(O)CC[C@H]2[C@@H]3CCC4=Cc5oncc5C[C@]4(C)[C@H]3CC[C@@]21C | inactive
CN(Cc1cccc(F)c1)C(=O)CN1C(=O)NC2(CCc3ccccc32)C1=O (stereo not given) | inconclusive: 1.41 µM [inhibitor, full curve, poor fit]
COc1cc(CNCCNC(=O)c2nonc2N)ccc1OCc1ccc(Cl)cc1 | inconclusive: 31.6 µM [inhibitor, single point]
Oc1cc2c(cc1CN1CCN(c3ccc(F)cc3)CC1)OCO2 | inactive
CCN(C(=O)COC(=O)C1CC1)c1c(N)n(Cc2ccccc2)c(=O)[nH]c1=O | inconclusive: 5.62 µM [inhibitor, single point]
CN(C)c1cc[n+](Cc2c(Cl)cccc2Cl)cc1 | inconclusive: 14.1 µM [inhibitor, partial curve]
COc1ccccc1CNc1ncnc2cc(OC)c(OC)cc12 | inconclusive: 31.6 µM [inhibitor, single point]
O=C(CN1CCN(S(=O)(=O)c2ccc(Br)cc2)CC1)N/N=C/c1cccnc1 | inactive
COc1ccc2[nH]c(C(=O)N3CCCN(Cc4ccc(F)cc4)CC3)cc2c1 | inconclusive: 22.4 µM [inhibitor, single point]
c1ccc(Cc2nc3ccccc3n2Cc2ccccc2)cc1 | inconclusive: 28.2 µM [inhibitor, partial curve]
O=c1c(-c2ccc([N+](=O)[O-])cc2)coc2c(O)c(O)ccc12 | inconclusive: 25.1 µM [inhibitor, single point]
O=C(NCc1ccccn1)C1CC(c2ccc(F)cc2)=NO1 (stereo not given) | inactive
COc1ccccc1NC(=O)C(=O)c1cn(CC(=O)N2CCCC2)c2ccccc12 | inconclusive: 8.91 µM [inhibitor, partial curve]
Cc1ccc(NC(=O)Nc2ccccc2)nc1 | inactive
O=C(CSCc1ccco1)N1CCc2ccccc21 | inactive
O=C(/C=C/c1cccs1)Nc1ccc(Br)cn1 | inactive
COC(=O)c1cccc(-n2sc3ccccc3c2=O)c1 | inconclusive: 10 µM [inhibitor, partial curve]
Cc1[nH]c2ccc(C(=O)OC(C)C(=O)NCc3ccccc3)cc2c1C (stereo not given) | inconclusive: 0.501 µM [inhibitor, full curve, poor fit]
COc1cc2[nH]c(=S)n(NC(=O)CC(C)C)c(=O)c2cc1OC | inactive
O=c1c(Cl)nc2cc(Cl)ccc2n1CCNc1ncc(C(F)(F)F)cc1Cl | inactive

SMILES | Potency
CCC(OC(=O)C1=Cc2ccccc2OC1)C(=O)NCc1ccco1 (stereo not given) | inconclusive: 10 µM [inhibitor, partial curve]
CN(Cc1ccccc1)C(=O)COC(=O)c1ccc[nH]c1=O | inactive
CCOC(=O)C1=C(COC(=O)/C=C/c2ccccc2)NC(=O)NC1C (stereo not given) | inconclusive: 3.98 µM [inhibitor, full curve]
CC(=O)Nc1ccc(Nc2nc(-c3sc(NC(C)=O)nc3C)cs2)cc1 | active: 11.2 µM
O=[N+]([O-])c1cccc(OCC(O)CN2CCN(S(=O)(=O)c3cc(Cl)ccc3Cl)CC2)c1 (stereo not given) | inactive
COc1cc(C(=O)OCc2csc(CC(=O)Nc3ccccc3C)n2)ccc1OCC(C)C | inconclusive: 6.31 µM [inhibitor, full curve]
O=C(CC1N=C2c3ccccc3N=C(SCc3ccc(F)cc3)N2C1=O)NCc1ccco1 (stereo not given) | inactive and inconclusive: 31.6 µM [inhibitor, single point]
CCn1c(C)c(/C=N/Nc2nc3ccccc3s2)c2ccccc21 | inconclusive: 0.631 µM [inhibitor, full curve, poor fit]
Cc1c(Cl)cccc1NC(=O)C1CCCN(S(C)(=O)=O)C1 (stereo not given) | inactive
c1ccc(Nc2nc(N3CCOCC3)nc(N3CCOCC3)n2)cc1 | inconclusive: 20 µM [inhibitor, partial curve]
Cc1onc(-c2c(F)cccc2Cl)c1C(=O)OCN1C(=O)c2ccccc2C1=O | inconclusive: 5.62 µM [inhibitor, single point]
COc1ccc(OCCOc2ccc(N(C)S(=O)(=O)c3ccccc3)cc2)cc1 | active: 11.2 µM
COc1ccc2noc3c2c1C(=O)c1ccccc1-3 | inconclusive: 31.6 µM [inhibitor, single point]
COc1ccc(OC)c(NC(=O)CCCSc2ccccc2)c1 | inconclusive: 2 µM [inhibitor, full curve]
COc1ccc2c(c1OC)C(=O)N(c1ccc(O)cc1)C2=O | inactive
COc1ccc2c(c1)[C@H]1[C@H](CO2)[C@H](c2ccccc2)[C@]2(C)C(=O)Nc3ccc(C)cc3C(=O)N12 | active: 11.2 µM
Cc1ccc(S(=O)(=O)c2c(N)n(CCCN(C)C)c3nc4ccccc4nc23)cc1 | inconclusive: 11.2 µM [inhibitor, partial curve]
O=C(CN1CCN(c2ccccn2)CC1)Nc1ccccc1C(=O)Nc1ccccc1 | inconclusive: 22.4 µM [inhibitor, single point]
NNC(=O)CNC(c1ccccc1)c1cc(Br)ccc1NC(=O)c1ccc(Br)cc1 (stereo not given) | inconclusive: 3.55 µM [inhibitor, single point]
O=C(COC(=O)c1ccccc1O)NCc1ccccc1Cl | inconclusive: 11.2 µM [inhibitor, partial curve]
Fc1ccc(N2C(=S)SC(=Nc3ccccc3)C2=Nc2ccccc2)cc1 | inconclusive: 7.94 µM [inhibitor, partial curve]
O=C(NCC(=O)N1CCCC(C(F)(F)F)C1)c1ccc2ccccc2c1 (stereo not given) | inactive
